Data from PubChem BioAssay AID686978 (National Center for Advancing Translational Sciences (NCATS), 2013).
Values joined by “and” are separate entries in the source; they are usually repeats but may differ in a detail not shown here. Equal entries are not always repeated. Among all 420,000 compounds or so, about 64,000 (15%) were called active. This list was built around the results that the source calls inconclusive (neither active nor inactive); the mix of calls is not that of the screen. Calls follow the shape of the dose curve; as a rule, active = well fitted inhibition curve with a large enough effect; inconclusive = small, poorly fitted or top-dose-only effect; inactive = flat fitted curve, though single readings scatter. Potencies beside an inconclusive call are fits to weak or partial responses and may not hold up.

assay: qHTS for Inhibitors of human tyrosyl-DNA phosphodiesterase 1 (TDP1): qHTS in cells in absence of CPT; conditions: DT40 Tdp1-/- hTDP1 cells, no CPT, ATP luminescence, 48 h; activity change, negative = growth inhibition: at 46.2 µM (top of the series); also: nearly all actives have a fitted effect of over 55% in size
Method in brief: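 Seeded 400 DT40-hTDP1 cells/well (vehicle DMSO, no 20 nM CPT); pinned compounds; ≥48 hr at 37 °C; CellTiter-Glo luminescence as viability measure.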
% is scaled to controls: 0 for no effect and ±100 for the full control effect; potency is read from the fitted curve at half-maximal effect; tags tell the direction and shape of the fitted curve.

| SMILES | Potency | activity change, negative = growth inhibition |
| --- | --- | --- |
| COC(=O)c1cc(Cl)c(NC(=O)/C=C/c2ccc(Cl)cc2Cl)cc1OC | inconclusive: 23.1 µM [inhibitor, single point] and inconclusive: 10.3 µM [inhibitor, partial curve, poor fit] |  |
| O=C(CCNC(=O)c1ccc(Cl)cc1)Nc1cc(C(F)(F)F)ccc1N1CCOCC1 | active: 23.1 µM |  |
| CC(C)(C)c1cc(C(=O)N2CCc3ccccc32)ccn1 | inconclusive: 18.4 µM [inhibitor, partial curve] |  |
| CCCN(CCC)Cc1c(C(=O)N/N=C/c2c[nH]c3ccccc23)nnn1-c1nonc1N |  | inactive: -5.57% |
| O=C(CSc1ncnc2scc(-c3ccccc3)c12)NCc1ccc2c(c1)OCO2 |  | inactive: 4.66% |
| CCOC(=O)c1c(NC(NC(=O)C(C)C)C(Cl)(Cl)Cl)sc2c1CCC2 (stereo unspecified) | active: 16.4 µM |  |
| O=C(c1ccccc1F)N(Cc1ccc(F)cc1)C1CCS(=O)(=O)C1 (stereo unspecified) |  | inactive: -2.2% |
| COCCNC(=O)CSc1nnc(-c2ccc(OC)c(OC)c2)c(-c2ccc(OC)c(OC)c2)n1 | inconclusive: 23.1 µM [inhibitor, single point] |  |
| CCCCCCOC(=O)C(C#N)c1nc2ccccc2nc1N1CCCCC1 (stereo unspecified) | inconclusive: 20.6 µM [inhibitor, single point] |  |
| CSc1ncccc1C(=O)OCC(=O)NC(C)CCc1ccccc1 (stereo unspecified) |  | inactive: -8.12% |
| O=c1[nH]c(/C=C/c2cccc(Br)c2)nc2ccccc12 | inconclusive: 6.51 µM [inhibitor, partial curve] |  |
| Cc1c(C(=O)NCCSCc2cccc(C(F)(F)F)c2)cnn1-c1ccc(Cl)cc1 | inconclusive: 29.1 µM [inhibitor, single point] |  |
| COCCSc1ccccc1C(=O)N1CCCC(C)C1 (stereo unspecified) |  | inactive: -18.3% |
| COc1ccc(Br)c2c1-c1nc(NC(=O)c3ccccc3SC)sc1C2 | inconclusive: 14.6 µM [inhibitor, partial curve] |  |
| COc1cc(C(=O)Nc2cc(C(F)(F)F)ccc2Cl)cc(OC)c1OC | inconclusive: 20.6 µM [inhibitor, single point] |  |
| O=S(=O)(c1cccc(C(F)(F)F)c1)N1CCCC1c1cccnc1 (stereo unspecified) | inconclusive: 18.4 µM [inhibitor, single point] |  |
| O=S(=O)(c1ccccc1)c1nc(-c2cccc(Cl)c2)oc1NCc1ccccc1 | active: 25.9 µM |  |
| CC(NC(=O)c1cc2c(=O)n3ccccc3nc2n(CC2CCCO2)c1=N)c1ccccc1 (stereo unspecified) | inconclusive: 29.1 µM [inhibitor, single point] |  |
| CC[C@H]1c2[nH]c3ccc(C(C)C)cc3c2[C@@H]2CCN3C(=O)CCC[C@H]1[C@H]23 | active: 10 µM |  |
| Cn1c(Cc2ccccc2)[n+](C)c2ccccc21 | active: 14.6 µM |  |
| O=C(CNc1cccc2ccccc12)N/N=C/c1ccc([N+](=O)[O-])o1 | active: 4.11 µM |  |
| Cc1cccc(N(Cc2ccccc2)C(=O)c2cccc(S(=O)(=O)N3CC(C)OC(C)C3)c2)c1 (stereo unspecified) | active: 10.3 µM |  |
| COc1cccc(CNC(=O)CCC2CCCN(C(=O)c3ccc(OC)c(F)c3)C2)c1 (stereo unspecified) |  | inactive: -17.8% |
| Cc1ccc(NC2=CC(=O)C(=O)c3ccccc32)c(C)c1 | active: 18.4 µM |  |

| SMILES | Potency | activity change, negative = growth inhibition |
| --- | --- | --- |
| CCOC(=O)NC(=S)c1ccc[nH]1 | inconclusive: 29.1 µM [inhibitor, single point] |  |
| O=C(NCc1ccc2c(c1)OCO2)C1CC(=O)N(c2ccc(Cl)cc2)C1 (stereo unspecified) |  | inactive: -13.3% |
| CCCC[n+]1ccn(-c2nc3c([N+](=O)[O-])cccc3n2C)c1 | inconclusive: 29.1 µM [inhibitor, single point] |  |
| C[C@@H]1CCC[C@H](C)N1Cc1nc(Cc2ccccc2Cl)no1 | inconclusive: 29.1 µM [inhibitor, single point] |  |
| Cc1cccc(-n2nc([N+](=O)[O-])c(=NCc3cccnc3)n2O)c1 | inconclusive: 25.9 µM [inhibitor, single point] |  |
| CN(C)c1nc2n(c(=O)n1)CCO2 |  | inactive: -3.42% |
| Cc1ccc(-c2nnn(CC(=O)N(c3cccc(O)c3)C(C(=O)NC(C)(C)C)c3cccs3)n2)o1 (stereo unspecified) |  | inconclusive: -30.2% [inhibitor] |
| COc1cccc(CN2CCN(Cc3nc4c(s3)CCCC4)CC2CCO)c1 (stereo unspecified) | inconclusive: 18.4 µM [inhibitor, partial curve] |  |
| COc1cccc(/C=N/NC(=O)COc2cccc3cccnc23)c1O | active: 4.11 µM |  |
| CC(C)CN(C(=O)CN(C)C(=O)c1ccco1)c1c(N)n(CC(C)C)c(=O)[nH]c1=O |  | inactive: 0.476% |
| Cc1c(C(=O)NCCN(C)C)oc2c1-c1nn(Cc3ccccc3Cl)cc1CC2 | inconclusive: 23.1 µM [inhibitor, single point] |  |
| CCOc1ccccc1/C=C(/NC(=O)c1ccccc1)C(=O)NC(C)c1ccccc1 (stereo unspecified) | inconclusive: 16.4 µM [inhibitor, single point] |  |
| Cn1c(SCC(=O)Nc2ccc3c(c2)oc2ccccc23)nnc1-c1ccccc1 | inconclusive: 25.9 µM [inhibitor, single point] |  |
| CCCCN1CCC[C@@H]1CNC(=O)c1cc(C#N)c2ccccc2c1OC | inconclusive: 21.1 µM [inhibitor, partial curve, poor fit] |  |
| CCCCOc1ccc(S(=O)(=O)Nc2cccc(-c3ccc(N4CCOCC4)nn3)c2)cc1 | inconclusive: 20.6 µM [inhibitor, single point] |  |
| Cn1c(NCc2ccco2)nc2c1c(=O)n(Cc1ccc(Br)cc1)c(=O)n2C | inconclusive: 16.4 µM [inhibitor, partial curve] |  |
| COc1cccc(-c2nc(-c3ccncc3)no2)c1 | inconclusive: 23.1 µM [inhibitor, partial curve] |  |
| Cc1ccc2[nH]c(=O)c3cc(C(=O)N(C)c4ccccc4C)sc3c2c1 | active: 10.3 µM |  |
| Cc1ccc(NC(=O)CSc2ncnc3ccccc23)cc1S(=O)(=O)N1CCCCCC1 | inconclusive: 23.1 µM [inhibitor, single point] |  |
| CC(C)(C)OC(=O)NC(CNCc1ccccc1)Cc1ccccc1 (stereo unspecified) | inconclusive: 25.9 µM [inhibitor, single point] |  |
| COc1ccccc1/C=C/CN1CCC(Oc2ccc(C(=O)N3CCCC3)cc2)CC1 | inconclusive: 29.1 µM [inhibitor, single point] |  |
| Cc1nc2sc(C(c3cccs3)N3CCC4(CC3)OCCO4)c(O)n2n1 (stereo unspecified) |  | inactive: 5.18% |
| CCCCCCOc1ccc(N2C(=O)CC(N(CCc3ccc(S(N)(=O)=O)cc3)C(C)=O)C2=O)cc1 (stereo unspecified) | inconclusive: 16.4 µM [inhibitor, partial curve] |  |
| CC(C)OC(=O)CC(=O)CSc1nc2c(cc1C#N)CCCC2 |  | inactive: -4.35% |

| SMILES | Potency | activity change, negative = growth inhibition |
| --- | --- | --- |
| O=C(/C=C/c1ccccc1)NCCSCc1ccccc1Cl |  | inconclusive: -31.1% [inhibitor] |
| Cc1c(Cl)cccc1NC(=O)[C@@]1(CC(=O)O)CC(/C=C/c2ccccc2)=NO1 |  | inactive: -3.3% |
| O=C(NCCCn1ccnc1)c1cc(-c2ccccc2)on1 | active: 7.31 µM |  |
| Cc1c(N=O)c(-c2ccccc2)n(O)[n+]1[O-] | inconclusive: 25.9 µM [inhibitor, single point] |  |
| CCCCCN(C(=O)CCC(=O)OCc1cccc(C)c1)c1c(N)n(CCCC)c(=O)[nH]c1=O | inconclusive: 16.4 µM [inhibitor, single point] |  |
| CCOC(=O)c1c(C)[nH]c(C)c1S(=O)(=O)N1CCN(c2ccc(F)cc2)CC1 | inconclusive: 29.1 µM [inhibitor, single point] |  |
| O=C(C[C@@H]1C/C=C\C[C@H](Cc2ccc(F)cc2)C(=O)OC[C@H]2CCCN2C1=O)N[C@H](CO)Cc1ccccc1 | active: 14.6 µM |  |
| Cc1noc(C)c1C(=O)OCC(=O)NC1CCCCC1C (stereo unspecified) |  | inactive: 0.324% |
| O=C(CNc1ccccc1N1CCCC1=O)Nc1cc(C(F)(F)F)ccc1-n1cncn1 |  | inactive: -18.9% |
| CC1=CCC2C(=O)N(c3ccc4ccccc4n3)C(=O)C2C1 (stereo unspecified) |  | inactive: -20.4% |
| Cc1ccc(NNC(=O)c2cc(C(C)(C)C)nn2Cc2ccccc2)cc1 | inconclusive: 18.4 µM [inhibitor, partial curve, poor fit] |  |
| COc1ccc(N(CC(=O)N2CCN(c3cc(C)ccc3C)CC2)S(=O)(=O)c2c(C)noc2C)cc1 | active: 13 µM |  |
| CCOC(=O)c1ccc(Nc2nc(C)cc(C)n2)cc1 | inactive |  |
| O=c1c2ccccc2nc2n1C(CSCc1cccc(C(F)(F)F)c1)CS2 (stereo unspecified) | active: 3.66 µM |  |
| Cc1ccc2[nH]c(=O)c3cc(C(=O)N(C)C4CCCCC4)sc3c2c1 |  | inactive: 10.2% |
| Cc1cnc(C)c(N2CCN(Cc3nc(-c4ccc(C)o4)oc3C)CC2)n1 | inconclusive: 29.1 µM [inhibitor, single point] |  |
| COc1ccc(OC)c(NC(=O)C(CC(=O)O)Cc2ccc(Cl)cc2)c1 (stereo unspecified) | inconclusive: 23.1 µM [inhibitor, single point] |  |
| CC(=O)N1N=C(c2cccc([N+](=O)[O-])c2)OC1c1ccc(Cl)cc1Cl (stereo unspecified) | inconclusive: 29.1 µM [inhibitor, single point] |  |
| COc1ccc(Cl)cc1N(CC(=O)Nc1ccccc1C(=O)NCc1ccco1)S(C)(=O)=O | inconclusive: 23.1 µM [inhibitor, single point] |  |
| CC1=CC(=C2C(=O)c3ccccc3C2=O)C=C(C)N1Cc1ccco1 | active: 20.6 µM |  |
| Cc1ccc(C)c(NS(=O)(=O)c2ccc3c(c2)Cc2cc(S(=O)(=O)Nc4cc(C)ccc4C)ccc2-3)c1 | active: 13 µM |  |
| CC1=CC(C)(C)N(S(=O)(=O)c2ccc(F)cc2)c2ccc(C)cc21 | active: 5.8 µM |  |
| Cc1ccc(-n2ncc3c(NNC(=O)c4ccccc4C)ncnc32)cc1 | inconclusive: 29.1 µM [inhibitor, single point] |  |
